Laboratory results published in the supplement of paper PMC12632987.
Over roughly 4,500 sequences, “median log2 fold change of GCK-ALFA target abundance (FLAG IP / Myc IP barcode read proportion)” has its median near 0.078; the lowest 2% begin near -0.6. The list shows a part of the results.

B1: GBRAP_160_4172 (protein)
chain: SETLEEAEKEITEIFDEAVEMMKGQTAAERAAIARVAFGEIILLLEEKGLLTDELDEHIDEVEDEVVTTILANPDLTDEELEALFTEAREKIIEALKKSS
B2: GBRAP_52_6146 (protein)
chain: KVEEFEKLLLEAVKAKKEGKEEEKEKLIKEAAELAKEMTEEEIEEAVERAVKKLKKEDLDAFMEVAIELAEEMLKAGMDERKASTFLGAAARAAYKKELE
B3: GBRAP_11_2672 (protein)
chain: MKEILEKAAELAEEAAELVEKLIKEGTDNEELLKELEEKIKELEELAKKHLSKALQSDVEVAKELFEELKADKENAEQYAKELLAALRVLAGNLLLEADE
B4: GBRAP_11_2899 (protein)
chain: EKEKLEKLAKLLKEAIKLLKKILKEGTDDKELLEKALKVAEEALKLAKEVMDESTVELAEEAVKLLKEAKKDPKNAEKYIQQALATAQVLLGQVLLKIEE
B5: GBRAP_35_5598 (protein)
chain: DIDELAVESTIDMIEATIEGIPELPVEELARISRLLIRDVRELIKREKNNLEALKRLAEALKKLLEAIKKHHGDNPEMQKVAEEIEKAIKEAEKVAKEIE
B6: GBRAP_35_5587 (protein)
chain: EDEELILEELEDQAEATLWALKEEDDETALAMLKAFIDFARRAIEDLKDNKEALEKILELIKKVIEAVKKYRSDNPEFQELLKELEELAKEAEELIKKNK
B7: GBRAP_11_2638 (protein)
chain: KKEKYEEAAKLAKEAIKLLEKLLKEGVDNEELLKEIKKLLEELKKLIESIDDEALKKEVEIAEELLKEAEEDKENREEYIKNLKAALEVLKAELEEKIEE
B8: GBRAP_166_4892 (protein)
chain: ATEEAIKQIKAIADDTIKNIANLTEEQILESFVDIAEIVDEAGATPELIETAAKQTAEIVEEGVKAGFDRDTLESLALAAFGDNEELLDTLEKELEALKK
B9: GBRAP_137_3663 (protein)
chain: KKINVNVELDGDFAEITIKAEDKELAEEAEDIAIEVAKETGVAYAISLDLENKEVYVDLLGPREKLEEFIKKFLEKLSEKADVNFTLKENGKETKEYLKK
B10: GBRAP_11_2803 (protein)
chain: KKEELKKIAELAKKLAEAVKKLIKEGVDNEELLKKIEELLKKLEELVKKYGDEGLKKLAEIAKELLKEAKEDPENKEEYLKQLLATARVLEGNVLLEIEE
B11: GBRAP_78_6729 (protein)
chain: ELKELLEKAIEVTSEAAKLAVKEASNEVIAEIVDALSYLEEALELVEEGGEKEEILKKLEEAEKHIKEAIKLLPENLKEIRKKLEKALELVKKAIKKVKE
B12: GBRAP_42_5722 (protein)
chain: MYLVHLEVVVNTKEELEEAIKIWEKKNKKYEEEKNIIIHLEIAAPEEAEELAKEAEKKSEELAKKATKELDWVVVAASADEVEEAIEIAVDLALEEIKEE
B13: GBRAP_128_3420 (protein)
chain: SMEEKVEEVRRLLEEMLTADEETQKELADRIFELMLESDLETAEAMAEVILEMLPEFTAEQLDILADAGRKRLSEFSPEKQELVADVIVEALNLAEELEE
B14: GBRAP_11_2619 (protein)
chain: KKETLEKLRDLAEEAAAAVAELLARGVDDAELRARIRELLKELRELTEKHSSEADKKDVEIAEELFEEALADAENAEAYFQQLLAALRVLAGNYLLDIEE
B15: GBRAP_184_5269 (protein)
chain: TVRHVELEADTAAAAIAEVRAAAAAARAAGARLRLTLLLRGASVDGVLALLALLGELRAEGVVESATVGVELDATEEEIDTLVAAADAAGVRLVIAIPEE
B16: GBRAP_117_2586 (protein)
chain: SALREEALKEVTALAERIRKALEEKKTLSEEERKELDEKLLEETKELLKKLLSKLSEEEVDEIIEEVLAELDPETYVEFESLLIEAEDKIKEEEEKEKLA
B17: GBRAP_160_4676 (protein)
chain: SEELEELLEEIREILEEAVEMMKGESLEERVAIARVAGGDVILLLEESPIVTDEVVDYADELMDEFVAWIEANPDATEEEIRALAEETLAKIEEEIEKHS
B18: GBRAP_160_4267 (protein)
chain: SPEREKLIKEVEKSRDEILKLADEITPEELKTFAVVELGSHLMEAIDLGLVSDEEEDELAKIIDDLEKELTANKNAPVEVHKEIITEHYDKFIELLKKAK
B19: GBRAP_52_5978 (protein)
chain: MEEEARKIAEELLALMLAGDKEGAKKLIKEIVETKSEEFIELIFEELARLAKTASPEERDAIVELAIMLGDIALEAGFDEAKVDAGEARVAAAAVAALEA
B20: GBRAP_26_5468 (protein)
chain: VDETVRKAIEEIDKVLKELLDPETAAAARTEANTLILEYAEEAKKNANDEEKMEEAKKKAVKEFKEFLDELGVPEDKKEKLVKKFKEELEKIAEAVKKEA
B21: GBRAP_78_6582 (protein)
chain: KVEEELDKAIDALGKAEKLARQLPPEAQEEVLDLLVEASSYLLEAEENGYDLKELEEALKEVEKARELVAKLDHPVAPALLAELDKAEEYLKKAIKLVKE
B22: GBRAP_139_3717 (protein)
chain: SAAEEKIEEAKKIVKEYKDDLKLLAKKLAELISTVDDETALEIARAAAEELKDWSYEKWEEFIELLEKELKELGLDEDTVLAIEGEMEAVMAKHLMAKEK
B23: GBRAP_11_2914 (protein)
chain: KLEKLKEAAKLAKELIETLKKLLKEGTDNEELREKALKLAEELLKLVEENFSEEDAELAKELVEALKKAKEDPANAEEYVKEALAIAQVLLGQALLEIEE
B24: GBRAP_35_5576 (protein)
chain: EDKEMLLETVEDLAEATIEAIKEGDVDLAIALLKAFLRTAKLAVEELENDLEALEKIAELLKKVIEEIKKHLADNPEMQKLLKELEKLLKEVKEKAEKVK
B25: GBRAP_160_4097 (protein)
chain: MEEVEKIIKEIEELAKETFEMIEGENIEERATIVRGLGGDVIMLLFESGKVSDEVEDFADKEFDALVATILANPDLTEEEIKKLIEETVKKVKEKIKEDV
B26: GBRAP_14_3816 (protein)
chain: MEELKKKIKEILEELREELVEEIGLDEEKVKKLIDEALEKIFKALDDPEGPEKKIEEIMDELREKIEELAAELGEDEAAAARALVTDAEYEILELYEESK
B27: GBRAP_160_4685 (protein)
chain: SEKVEEAEEFLEEEFAEVVELFDEVTREELAAFVRVAFGEIILELEELGLLTDEVAEVIDEEEERIVDAILNDPNITKEEFAALLEEAAEEIVEELEEEA
B28: GBRAP_184_5216 (protein)
chain: MLVNRSVEAETAEEAIKKSEEVIEEAKKEGKELNLNVFLKNMSIEEIEKVMTFLSEKKKEGLIKDATVVVEDPVSEEELDKLIKIADENGIRLVAALKDE
B29: GBRAP_35_5534 (protein)
chain: ESDLEIAEMLVDTMEDLVEALPDVSPEEKIKLARHIIDLAEDIVKLKPKDKELIEKAIEILEEAIEIIKKSDLPEEEKEELIKRLEEQKKKLEELLKENE

target: GABARAP, O95166; test: median log2 fold change of GCK-ALFA target abundance (FLAG IP / Myc IP barcode read proportion) (log2 ratio); each designed protein is fused to an ALFA-tag nanobody in HEK293 cells to bring the named protein to FLAG-tagged glucokinase (GCK); Myc marks an untargeted standard; higher = target protein stabilised (more abundant); conditions: target protein: 3xFLAG-MCP-GCK-ALFA reporter; HEK293 landing pad (RPLP)
Sequence (O95166 whole entry, the tested form may be a part): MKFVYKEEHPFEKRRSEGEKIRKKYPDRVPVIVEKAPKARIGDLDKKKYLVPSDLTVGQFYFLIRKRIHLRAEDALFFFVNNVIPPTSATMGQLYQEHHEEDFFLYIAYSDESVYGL
Procedure, shortened: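 HEK293 landing-pad cells received a recombined binder library fused to the ALFA nanobody and were induced with 2 μg mL^−1 doxycycline, then transfected with a plasmid encoding a FLAG-tagged target and a Myc-tagged standard. Lysates were collected after 48 h for anti-FLAG and anti-Myc immunoprecipitation, and the circular RNA barcodes were reverse transcribed, amplified and sequenced. Target abundance for each binder is the median log2 ratio of FLAG to Myc barcode read proportions. Barcodes had to reach a proportion of at least 10^−7 in both replicates, each binder needed at least 3 barcodes per replicate, a pseudocount of 10^−6 was applied, and the two replicates were pooled.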

Binder	median log2 fold change
B1	-0.144
B2	-0.0268
B3	0.186
B4	-0.152
B5	0.0148
B6	0.0805
B7	0.156
B8	0.114
B9	0.0963
B10	-0.0158
B11	-0.277
B12	-0.0173
B13	-0.2
B14	0.0253
B15	-0.0951
B16	0.281
B17	-0.366
B18	-0.0246
B19	0.0797
B20	0.286
B21	0.165
B22	-0.236
B23	0.252
B24	-1.27
B25	-0.135
B26	0.118
B27	-0.679
B28	0.153
B29	0.28
